In PMC11638247:
Results are given in words; binding and its absence hold for the method and conditions named. For some assays here: Binding seen in cells or lysates may run through a third protein. Some binding calls cover weakened binding; strength is not graded here.

The chains behind the UniProt entries cited, without tags or fusion partners.
UniProt Q9EPN1: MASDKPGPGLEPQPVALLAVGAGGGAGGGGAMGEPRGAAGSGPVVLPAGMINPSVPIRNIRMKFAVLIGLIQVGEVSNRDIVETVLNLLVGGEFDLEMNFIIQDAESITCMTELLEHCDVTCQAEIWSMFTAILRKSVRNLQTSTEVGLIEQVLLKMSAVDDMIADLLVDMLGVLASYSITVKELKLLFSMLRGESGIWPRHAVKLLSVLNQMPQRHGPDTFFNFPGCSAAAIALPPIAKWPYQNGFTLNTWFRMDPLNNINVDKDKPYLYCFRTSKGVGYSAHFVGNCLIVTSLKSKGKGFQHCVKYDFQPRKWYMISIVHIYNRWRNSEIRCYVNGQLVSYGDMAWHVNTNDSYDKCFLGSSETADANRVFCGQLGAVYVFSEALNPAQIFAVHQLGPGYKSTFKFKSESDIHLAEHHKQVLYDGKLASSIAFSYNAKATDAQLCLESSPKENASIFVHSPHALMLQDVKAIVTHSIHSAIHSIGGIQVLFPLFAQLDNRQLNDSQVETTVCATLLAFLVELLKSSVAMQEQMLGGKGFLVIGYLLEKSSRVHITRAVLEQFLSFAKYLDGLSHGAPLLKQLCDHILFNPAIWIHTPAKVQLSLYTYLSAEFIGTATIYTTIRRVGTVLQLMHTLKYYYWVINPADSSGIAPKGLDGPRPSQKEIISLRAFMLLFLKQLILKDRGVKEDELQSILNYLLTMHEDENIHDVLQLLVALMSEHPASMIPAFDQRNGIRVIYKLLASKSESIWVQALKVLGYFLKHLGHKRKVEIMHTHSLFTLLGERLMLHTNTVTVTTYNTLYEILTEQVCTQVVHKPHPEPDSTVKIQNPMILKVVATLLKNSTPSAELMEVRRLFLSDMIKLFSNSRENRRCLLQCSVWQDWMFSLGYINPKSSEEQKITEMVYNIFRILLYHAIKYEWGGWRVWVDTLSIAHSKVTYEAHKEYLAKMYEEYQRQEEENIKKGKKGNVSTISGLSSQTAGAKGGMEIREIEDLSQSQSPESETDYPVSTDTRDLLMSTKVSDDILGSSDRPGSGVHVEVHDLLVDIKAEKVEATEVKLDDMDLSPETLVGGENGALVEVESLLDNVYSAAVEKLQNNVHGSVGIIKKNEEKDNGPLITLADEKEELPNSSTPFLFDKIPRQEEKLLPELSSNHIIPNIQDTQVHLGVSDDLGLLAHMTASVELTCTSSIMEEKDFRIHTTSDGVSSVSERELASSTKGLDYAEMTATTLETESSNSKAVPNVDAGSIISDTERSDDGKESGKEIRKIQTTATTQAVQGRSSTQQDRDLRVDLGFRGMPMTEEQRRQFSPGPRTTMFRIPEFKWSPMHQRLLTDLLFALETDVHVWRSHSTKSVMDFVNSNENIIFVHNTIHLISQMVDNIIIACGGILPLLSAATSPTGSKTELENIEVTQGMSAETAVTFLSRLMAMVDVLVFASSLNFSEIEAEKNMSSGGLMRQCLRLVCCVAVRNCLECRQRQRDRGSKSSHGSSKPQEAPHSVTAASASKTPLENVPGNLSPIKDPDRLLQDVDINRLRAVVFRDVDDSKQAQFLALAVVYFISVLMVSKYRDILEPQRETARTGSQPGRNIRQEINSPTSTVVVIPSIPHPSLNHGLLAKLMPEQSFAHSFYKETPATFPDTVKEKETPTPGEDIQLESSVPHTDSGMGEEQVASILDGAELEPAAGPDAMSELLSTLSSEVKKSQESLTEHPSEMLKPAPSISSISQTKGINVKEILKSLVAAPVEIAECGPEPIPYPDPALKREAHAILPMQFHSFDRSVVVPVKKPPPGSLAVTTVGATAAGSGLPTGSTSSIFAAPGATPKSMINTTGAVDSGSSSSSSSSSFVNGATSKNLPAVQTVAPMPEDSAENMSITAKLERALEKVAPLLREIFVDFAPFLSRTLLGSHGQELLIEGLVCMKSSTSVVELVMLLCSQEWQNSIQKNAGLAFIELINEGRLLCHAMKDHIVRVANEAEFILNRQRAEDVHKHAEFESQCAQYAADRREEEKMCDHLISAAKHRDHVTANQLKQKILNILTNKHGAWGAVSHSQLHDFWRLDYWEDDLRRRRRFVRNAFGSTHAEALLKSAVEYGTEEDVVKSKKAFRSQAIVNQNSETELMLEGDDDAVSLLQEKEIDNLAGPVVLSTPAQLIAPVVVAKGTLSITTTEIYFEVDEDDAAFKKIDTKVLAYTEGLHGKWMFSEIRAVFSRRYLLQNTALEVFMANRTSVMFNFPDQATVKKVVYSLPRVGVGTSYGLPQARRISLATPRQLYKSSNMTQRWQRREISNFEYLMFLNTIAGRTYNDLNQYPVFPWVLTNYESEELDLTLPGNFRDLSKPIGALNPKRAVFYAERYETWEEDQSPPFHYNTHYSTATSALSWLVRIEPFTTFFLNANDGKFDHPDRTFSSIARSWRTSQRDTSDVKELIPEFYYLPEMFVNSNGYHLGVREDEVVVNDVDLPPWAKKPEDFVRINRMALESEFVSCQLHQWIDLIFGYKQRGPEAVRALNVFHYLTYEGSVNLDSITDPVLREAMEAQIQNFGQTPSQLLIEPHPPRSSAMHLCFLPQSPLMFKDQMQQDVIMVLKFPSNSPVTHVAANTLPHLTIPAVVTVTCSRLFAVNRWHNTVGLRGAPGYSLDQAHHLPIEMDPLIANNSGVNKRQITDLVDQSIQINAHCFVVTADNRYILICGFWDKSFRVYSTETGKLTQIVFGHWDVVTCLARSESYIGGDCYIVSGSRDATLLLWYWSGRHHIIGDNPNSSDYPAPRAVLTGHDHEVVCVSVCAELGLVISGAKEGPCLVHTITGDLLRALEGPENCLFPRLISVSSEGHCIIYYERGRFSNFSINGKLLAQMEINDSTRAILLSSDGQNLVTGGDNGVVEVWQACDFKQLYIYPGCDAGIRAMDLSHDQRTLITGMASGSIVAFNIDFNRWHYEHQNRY

Experiments:
[1] = biological target: T1, Gephyrin peptide No. 2 (mouse); experiment: peptide or protein array; gephyrin peptides (residues 171-375) immobilised in CelluSpot format; incubated with whole brain lysate 5 h at RT; bound Nbea detected with anti-neurobeachin antibodies, chemiluminescence; only the target purified
T1 sequence (peptide): VKEVHDELEDLPSPP

[2] = biological target: T2, Gephyrin peptide No. 19 (mouse); experiment: as above
T2 sequence (peptide): ASLSTTPSESPRAQA

[3] = biological target: T3, Gephyrin peptide No. 39 (mouse); experiment: as above
T3 sequence (peptide): KAFITVLEMTPVLGT

[4] = biological target: T4, GABAA receptor γ2 subunit (GABAAR γ2-containing receptors), endogenous (mouse (endogenous in cortex)) (UniProt P22723); experiment: co-IP; antibody on Dynabeads Protein G incubated 2-4 h with adult mouse cortical lysate P2; IM-Ac buffer with 1% Triton, pH 7.2, 4 °C; Western blot
T4 sequence: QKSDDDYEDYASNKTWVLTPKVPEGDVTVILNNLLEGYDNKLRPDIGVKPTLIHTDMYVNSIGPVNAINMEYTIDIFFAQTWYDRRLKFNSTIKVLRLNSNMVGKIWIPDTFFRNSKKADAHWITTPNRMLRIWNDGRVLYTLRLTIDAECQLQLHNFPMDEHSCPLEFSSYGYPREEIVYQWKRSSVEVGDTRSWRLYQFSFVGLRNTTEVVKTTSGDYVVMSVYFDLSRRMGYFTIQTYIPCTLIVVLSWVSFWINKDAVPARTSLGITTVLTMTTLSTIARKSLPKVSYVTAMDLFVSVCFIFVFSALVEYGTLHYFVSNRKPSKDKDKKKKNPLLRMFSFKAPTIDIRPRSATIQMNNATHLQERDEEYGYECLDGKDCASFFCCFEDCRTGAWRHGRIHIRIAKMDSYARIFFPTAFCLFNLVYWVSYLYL

[5] = biological target: T5, Gephyrin (endogenous) (mouse (endogenous in cortex)) (UniProt Q8BUV3); experiment: as above
T5 sequence: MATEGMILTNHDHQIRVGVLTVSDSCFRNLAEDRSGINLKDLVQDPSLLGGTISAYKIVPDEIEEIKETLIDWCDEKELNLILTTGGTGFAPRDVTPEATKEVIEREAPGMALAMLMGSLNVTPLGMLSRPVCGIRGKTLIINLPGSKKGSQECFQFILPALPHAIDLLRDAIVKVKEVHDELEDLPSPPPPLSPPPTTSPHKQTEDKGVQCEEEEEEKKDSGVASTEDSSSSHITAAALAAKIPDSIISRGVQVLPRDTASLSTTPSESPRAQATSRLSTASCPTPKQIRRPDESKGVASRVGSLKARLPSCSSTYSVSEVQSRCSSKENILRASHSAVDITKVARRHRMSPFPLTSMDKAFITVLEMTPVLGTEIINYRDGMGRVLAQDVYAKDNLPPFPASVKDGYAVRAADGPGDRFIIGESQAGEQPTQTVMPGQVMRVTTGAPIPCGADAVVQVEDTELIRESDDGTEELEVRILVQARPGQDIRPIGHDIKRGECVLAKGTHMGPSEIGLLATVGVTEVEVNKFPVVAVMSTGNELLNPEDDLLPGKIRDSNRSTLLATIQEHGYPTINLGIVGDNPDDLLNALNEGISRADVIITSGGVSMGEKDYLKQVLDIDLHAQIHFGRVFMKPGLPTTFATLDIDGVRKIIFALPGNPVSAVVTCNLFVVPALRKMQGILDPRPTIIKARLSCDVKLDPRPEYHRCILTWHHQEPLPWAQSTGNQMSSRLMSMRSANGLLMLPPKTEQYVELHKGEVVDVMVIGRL

- binding [1]: binds
- binding [2]: no binding
- binding [3]: binds
- binding [4]: binds
- binding [5]: binds
Substance: Neurobeachin (endogenous) (from UniProt Q9EPN1 1-2936)
